In PubChem BioAssay AID1671193 (National Center for Advancing Translational Sciences (NCATS), 2021):
Hit rate of the full screen: of about 150,000 compounds, about 180 (0.12%) were called active. Inconclusive results, whose numbers are uncertain, are shown with a selection of clear calls. Calls come from the whole dose curve; as a rule, active = well fitted cell-killing curve with a large enough effect; inconclusive = small, poorly fitted or top-dose-only effect, or effect the other way; inactive = flat fitted curve, though single readings scatter. Potencies of inconclusive entries are doubtful fits and often do not repeat.

Assay: GF-AFC viability counterscreen for inhibitors of alpha-synuclein gene (SNCA) expression; note: nearly all actives have a fitted effect of over 30% in size;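 for activity change, negative = cytotoxicity: 0% = DMSO-treated cells and -100% = medium-only wells without cells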
Details: HEK-293-SNCA-luc viability, GF-AFC fluorescence, 24 h; activity change, negative = cytotoxicity: at 57.1 µM (top of the series) unless noted
Summary of the method: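 Cytotoxicity counterscreen: after 24 h compound treatment of genome-edited SNCA-luciferase HEK-293 cells, live-cell protease substrate GF-AFC read by fluorescence after 30 min; activity scaled between DMSO (0%) and medium-only (-100%), curves Hill-fitted.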
Potency is the fitted concentration of half-maximal effect; tags give direction and shape of the fitted curve.

SMILES	Potency	activity change, negative = cytotoxicity
Cc1nc(N=Nc2ccc(S(=O)(=O)O)cc2S(=O)(=O)O)c(COP(=O)(O)O)c(C=O)c1O	inactive	–
COc1cccc(Cn2c(=O)c(-c3ccc(F)cc3)nc3cnc(N4CCOCC4)nc32)c1	inconclusive: 8.91 µM [rising, partial curve]	–
COc1ccc(-c2ccc3ncc(Nc4ccc(OC)c(OC)c4)n3n2)cn1	inconclusive: 39.8 µM [cytotoxic, single point]	–
OCC1CN(c2ncccn2)CC12CCN(Cc1ccc3cc[nH]c3c1)CC2 (configuration not stated)	inactive	–
Cc1ccc(C2Cn3nnc(-c4nc(-c5cccnc5)no4)c3CO2)c(C)c1 (configuration not stated)	inactive	–
CC(C)c1nc2c(c(-c3ccc(Cl)cc3)n1)CCN(C(=O)c1ccccc1)CC2	inconclusive: 25.1 µM [cytotoxic, partial curve, poor fit]	–
Cc1ccncc1C(=O)N1CC(N(C)Cc2cccnc2)C1	inactive	–
COc1ccc(C2c3c(-c4ccc(F)cc4)n[nH]c3C(=O)N2c2ccccc2)cc1OC (configuration not stated)	inconclusive: 14.1 µM [cytotoxic, partial curve, poor fit]	–
COc1ccc(CCN2C(=O)O[C@@H]3CN(c4nc(C)cc(C)n4)C[C@@H]32)cc1	inactive	–
CC1=C[C@@H](CNC(=O)c2cncnc2)[C@H](C(C)C)C[C@H]1CC(=O)N(C)Cc1ccccc1	inconclusive: 15.8 µM [cytotoxic, partial curve, poor fit]	–
CCOC(=O)C1CCN(C(=O)c2cc(-c3ccncc3)cn2Cc2ccccc2C)CC1	inconclusive: 6.31 µM [cytotoxic, full curve, poor fit]	–
COCCNC(=O)C(NC(=O)c1ccc(OC)cc1)C1CCN(C(=O)c2ccco2)CC1 (configuration not stated)	inactive	–
COCc1nc(C2CC(N)C2)cc(N(C)Cc2noc3c2CCCC3)n1 (configuration not stated)	inactive	–
Cc1ccc2oc(=O)c3cc(C(=O)Nc4cccc(C#N)c4)sc3c2c1	inconclusive: 31.6 µM [cytotoxic, single point]	–
Cc1cc(C)n2c(Nc3cccc(C(F)(F)F)c3)c(-c3ccsc3)nc2n1	inconclusive: 31.6 µM [cytotoxic, single point]	–
O=C(COc1ccc(F)cc1)Nc1cnc(-c2ccccc2)nc1	inconclusive: 8.91 µM [rising, partial curve, poor fit]	–
COc1ccc(Cl)cc1NC(=O)CCCS(=O)(=O)c1nc(-c2ccc(OC)c(OC)c2)cc(C(F)(F)F)n1	inconclusive: 12.6 µM [cytotoxic, partial curve]	–
O=C(O)CCn1ccc2cc(S(=O)(=O)N3CCCCC3)ccc21	inconclusive: 44.7 µM [rising, partial curve, poor fit]	–
COc1ccc(C(=O)N2CCC(Oc3cccnc3)C2)cc1 (configuration not stated)	inconclusive: 22.4 µM [cytotoxic, partial curve, poor fit]	–
Cc1ccc(-c2n[nH]c3c2C(c2cccs2)N(c2ccc(Cl)cc2)C3=O)cc1 (configuration not stated)	inconclusive: 0.178 µM [cytotoxic, full curve, poor fit]	–
CCc1nn(-c2ccccc2)c(Oc2ccccc2F)c1CCC(=O)NCCOC	inconclusive: 3.98 µM [cytotoxic, single point]	–
CN(c1cc(=O)c2ccnc(-c3ccc(O)c(F)c3)c2o1)C1CCOCC1	inactive	–
Cc1ccsc1CN1CCn2nnc(CCC(=O)NCc3ccccc3)c2C1	inactive	–

SMILES	Potency	activity change, negative = cytotoxicity
CC(C)N1C(=O)C2(CCCC2)C1C(=O)N(C)CCc1ccccn1 (configuration not stated)	inactive	–
COc1cccc(CSc2nc(-c3ccccc3OC)nc3c2Cc2c(CO)cnc(C)c2O3)c1	inconclusive: 39.8 µM [cytotoxic, single point]	–
CC(Oc1ccccc1)C(=O)N1CCC(n2cc(-c3nc(-c4ccccc4)no3)nn2)CC1 (configuration not stated)	inconclusive: 39.8 µM [cytotoxic, single point]	–
Cc1cccc(-n2c(SCC(=O)Nc3ccccc3C)nc3c(oc4ccccc43)c2=O)c1	inconclusive: 1 µM [cytotoxic, full curve, poor fit]	–
COc1ccccc1-c1[nH]nc2ncc(-c3ccccc3O)nc12	inconclusive: 31.6 µM [cytotoxic, single point]	–
COc1cccc(-c2ccc(CN3CCCC(NC(=O)Cc4cccc(Cl)c4)C3)cc2)c1 (configuration not stated)	inconclusive: 28.2 µM [cytotoxic, single point]	–
CC(=O)N1CCN(c2nc3c(s2)CC(C(=O)NCc2ccc(C(C)C)cc2)CC3)CC1 (configuration not stated)	inactive	–
O=C(O)c1ccc(CN2Cc3[nH]cnc3C[C@H]2c2nc(-c3ccncc3)no2)cc1	inactive	–
Brc1ccc(CN2CCC(c3nc4ccncc4[nH]3)C2)cc1 (configuration not stated)	inactive	–
O=C1CO[C@H]2CCN(CCCc3ccccc3)CC[C@@H]2N1c1ccccc1	inactive	–
O=C(c1ccc(OC2CCN(C(=O)C3CCCC3)CC2)nc1)N1CCOCC1	inactive	–
COc1cccc(-c2ccc(CN3CCCC(NC(=O)c4ccc(C)cc4)C3)cc2)c1 (configuration not stated)	inconclusive: 14.1 µM [cytotoxic, partial curve, poor fit]	–
COC(=O)[C@@H]1Cc2ncn(Cc3ccccc3)c2CN1S(=O)(=O)c1ccc(C)cc1	inconclusive: 6.31 µM [cytotoxic, partial curve, poor fit]	–
CN(Cc1ccccc1)C(=O)C1(C)COCc2cnc(Nc3ccccc3)nc21 (configuration not stated)	inactive	–
O=C(Nc1cccc(-c2cccc(Cl)c2)c1)C1CCN(Cc2cccc(O)c2)CC1	inconclusive: 35.5 µM [cytotoxic, single point]	–
Cc1ccc(C2NC(=O)N(CC(=O)N(C)c3cccc(C)c3)C3=C2C(=O)OC3)cc1 (configuration not stated)	inconclusive: 14.1 µM [cytotoxic, partial curve]	–
COc1cccc(-c2nnc3sc(CN4CCCCC4)cn23)c1	inconclusive: 15.8 µM [cytotoxic, partial curve, poor fit]	–
C[C@@H]1COCCN1c1cc(C2(S(C)(=N)=O)CC2)nc(-c2ccnc3[nH]ccc23)n1 (some centres not stated)	–	inconclusive: -31.2% [cytotoxic]
CCn1nc(C)c2c(-c3ccccc3)cc(=O)n(C(C)C(=O)NCCc3ccccc3)c21 (configuration not stated)	inconclusive: 39.8 µM [cytotoxic, partial curve, poor fit]	–
Cc1cc(=O)oc2c3c(ccc12)OCN(Cc1ccc(Cl)cc1)C3	inconclusive: 25.1 µM [rising, single point]	–
Cc1ccccc1NCc1nc2c(n1Cc1ccccc1)C(=O)N(CCOc1ccccc1)CCN2	inactive	–
CCN(CC)C(=O)COc1ccc(-c2nnc(Nc3ccc(OC)c(C(=O)NC)c3)c3ccccc23)cc1	inconclusive: 39.8 µM [cytotoxic, single point]	–
O=C(NCc1cccs1)c1cc(-c2cccc(C(F)(F)F)c2)c2nncn2n1	inconclusive: 1.78 µM [cytotoxic, full curve, poor fit]	–

SMILES	Potency	activity change, negative = cytotoxicity
Cc1cc(=O)oc2cc(OCC(=O)Nc3c(C(C)C)cccc3C(C)C)ccc12	inconclusive: 7.08 µM [rising, full curve, poor fit]	–
COc1cc(OC)c(NC(=O)Cn2cnc3nc4c(cc3c2=O)CCCC4)cc1Cl	inconclusive: 3.16 µM [cytotoxic, full curve]	–
Oc1ccc(C2=Cc3ccc(O)cc3OC2)cc1	inconclusive: 9.61 µM [cytotoxic, full curve]	–
Cc1ccc(Cn2c(C3CCN(C(=O)c4ccccc4Cl)CC3)n[nH]c2=O)cc1	inactive	–
CNCCC(Oc1ccccc1C)c1ccccc1 (configuration not stated)	inactive	–
Cc1ccc(C2c3[nH]c4ccccc4c3CCN2C(=O)CCc2ccccc2)cc1 (configuration not stated)	inactive	–
COc1ccc(-c2noc(CC3CCN(C(=O)c4ccc5c(c4)OCO5)CC3)n2)cc1	inconclusive: 1 µM [cytotoxic, full curve, poor fit]	–
CCN(C(=O)CSc1nc2ccccc2n1CC(=O)N1CCCC(C)C1)c1ccccc1 (configuration not stated)	inconclusive: 7.08 µM [cytotoxic, partial curve, poor fit]	–
COc1cccc(Cn2c(=O)c(-c3cccc(F)c3)nc3cncnc32)c1	inconclusive: 3.55 µM [cytotoxic, single point]	–
CCCCNC(=O)CC1N=C2c3ccccc3N=C(SCC(=O)NCc3ccccc3Cl)N2C1=O (configuration not stated)	inactive	–
CN1C[C@@H](NC(=O)c2ccc(C#N)cc2)C[C@H]1c1nc(-c2cncnc2)no1	inactive	–
CC(C)N(CCC(=O)c1ccc2ccccc2c1)Cc1ccccc1	inconclusive: 26.7 µM [cytotoxic, single point]	–
Cc1noc(C)c1-c1cc2cc(CNC3CCOCC3)oc2c(NC2CCN(C)CC2)n1	inconclusive: 15.8 µM [cytotoxic, partial curve, poor fit]	–
CCn1cc(CN2C[C@@H](COc3ccccc3)[C@H](C(N)=O)C2)c(C)n1	inactive	–
O=C(N[C@H]1C[C@@H](CO)N(CCc2ccccc2)C1)c1cccnc1	inactive	–
CCCCS(=O)(=O)N1CC(n2cc(COc3ccccc3)nn2)C1	inactive	–
COc1cc(-c2nc(-c3c(C)noc3C)cc3cc(C)oc23)ccn1	inactive	–
O=C1NCC(=O)N2CCN(Cc3ccccc3-c3ccccc3)CC12 (configuration not stated)	inconclusive: 0.794 µM [rising, full curve, poor fit]	–
COc1ccc(C2NC(=O)N(C)C3=C2C(=O)N(c2ccc(F)cc2)C3)cc1 (configuration not stated)	inconclusive: 31.6 µM [cytotoxic, partial curve, poor fit]	–
O=C(NCCc1nc2ccccc2n1CCCOc1ccc(Cl)cc1)C1CCCCC1	inconclusive: 39.8 µM [cytotoxic, single point]	–
N#Cc1ccc(Nc2nc(-c3ccc(O)cc3O)cs2)cc1C(F)(F)F	active: 11.9 µM	–
